The full ranking holds about 33,000 sequences; the median of “E-score (-0.5 to 0.5)” is about -0.036, and the highest 2% start at about 0.37. The list shows a part of the results.
target: T1, Yer064c (UniProt P40041); assay: PBM E-score (8-mer binding enrichment) (E-score (-0.5 to 0.5)); higher = stronger / more preferred TF binding; most listed sequences are background and not binding sites; settings: protein concentration: 200 nM; construct: GST-full length
T1 sequence: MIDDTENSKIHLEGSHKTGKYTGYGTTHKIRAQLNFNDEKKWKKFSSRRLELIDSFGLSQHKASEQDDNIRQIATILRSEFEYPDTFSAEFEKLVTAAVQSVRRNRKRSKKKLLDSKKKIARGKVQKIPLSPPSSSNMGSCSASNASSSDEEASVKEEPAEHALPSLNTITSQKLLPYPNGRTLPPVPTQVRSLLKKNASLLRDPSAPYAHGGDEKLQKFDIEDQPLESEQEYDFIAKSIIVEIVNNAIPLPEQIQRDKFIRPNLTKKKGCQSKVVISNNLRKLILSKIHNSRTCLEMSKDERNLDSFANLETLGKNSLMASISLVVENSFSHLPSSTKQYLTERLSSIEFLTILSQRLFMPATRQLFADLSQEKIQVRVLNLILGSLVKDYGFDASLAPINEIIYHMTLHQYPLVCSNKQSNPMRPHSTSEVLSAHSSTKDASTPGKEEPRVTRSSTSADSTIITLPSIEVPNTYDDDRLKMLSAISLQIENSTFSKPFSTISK
Summary of the method: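 Detection of bound protein used fluorescent anti-GST, with scans normalised by masliner. The proteins were GST-tagged yeast transcription factors applied at about 100-200 nM to universal all-10-mer Agilent arrays made double-stranded by primer extension. Each ungapped eight-base word, pooled with its reverse complement, was scored with an E-score from the Universal PBM Analysis Suite.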

Row | Sequence | PBM E-score
1 | GAACCAGA | 0.0172
2 | ACTGTAAC | 0.158
3 | ACGCATCA | -0.0554
4 | CAGTTGAA | -0.0486
5 | CGGTCAAG | -0.055
6 | AAGTAGCG | -0.0751
7 | ATGGCACC | -0.45
8 | CTTGACCA | 0.0717
9 | CGCGTTGC | 0.064
10 | AGTTTTAC | -0.0616
11 | CGGGTGCC | -0.315
12 | GGGGGTCA | -0.105
13 | AGAATTCG | 0.0008
14 | TGTTTGAA | 0.0898
15 | ACGTGGTG | -0.207
16 | CGGCTAAA | 0.19
17 | GACGCGTC | -0.23
18 | CCTAACGA | -0.0447
19 | AACATGCG | 0.0179
20 | CTCCCCGC | -0.0173
21 | AGGAAGTA | -0.112
22 | AAAAAGAT | 0.0796

Row | Sequence | PBM E-score
23 | AGGATGCG | -0.269
24 | GTTCCGTA | -0.0386
25 | ACTAGAAG | 0.142
26 | GTATACCA | -0.144
27 | AAACACTA | -0.0799
28 | AAAAGGGA | -0.137
29 | CGCGTTGA | 0.078
30 | CCGAAGAC | 0.107
31 | ATCCAGGC | -0.121
32 | CTCTAGCC | -0.177
33 | GGAAGCCC | -0.374
34 | CTCGCCGC | -0.0478
35 | CGTAGAGA | 0.133
36 | AACCCGAG | -0.142
37 | GGTCCCTA | -0.144
38 | CGATATAC | -0.197
39 | GCCCTCAA | -0.281
40 | CTGTCGTA | -0.00212
41 | ACCGGAGA | -0.00273
42 | CTCTATTC | -0.151
43 | GTTTTACA | -0.0974
44 | GTAATGAC | 0.258

Row | Sequence | PBM E-score
45 | ATCCACGC | -0.172
46 | CACTGCGA | -0.0866
47 | ACGTGCTA | -0.247
48 | CTTCTCAA | 0.161
49 | GCGTACCC | -0.308
50 | AGGAGACA | 0.123
51 | CTGGGTTC | -0.0562
52 | GTAAGAGA | -0.0885
53 | ACCTTTAT | -0.00399
54 | CAATTCGC | -0.00772
55 | GGCGGAGA | -0.0465
56 | GCATCGGC | -0.115
57 | GTAGGTTA | -0.195
58 | GTCTAAGA | 0.178
59 | AACTCGGT | -0.0496
60 | AATGAAAT | 0.135
61 | AGTATCCC | -0.188
62 | AACATTGT | -0.00979
63 | GCTCTACC | -0.174
64 | AAAAAGAA | 0.0335
65 | TCTCTGAA | 0.0685
66 | AATTACGG | -0.197

Row | Sequence | PBM E-score
67 | ATAGAATC | 0.12
68 | ACATGATG | -0.051
69 | GTTTTTAA | 0.0343
70 | AACCCATA | 0.111
71 | ATCGCCGG | 0.0496
72 | ACCGTCGG | -0.156
73 | AGCTCAAC | 0.0619
74 | AGTGACTG | 0.403
75 | GCTCCACC | -0.354
76 | ACCCCTCG | -0.142
77 | CAGTTATC | -0.121
78 | AGTGCTGC | -0.0823
79 | CTATGAGA | 0.141
80 | AAACTCTA | -0.00034
81 | CAGGTTAA | 0.0994
82 | AAAATCTA | 0.0742
83 | AGCTACAA | -0.181
84 | ATGATGGC | -0.22
85 | ACGAGAGA | -0.0232
86 | AAATCACA | 0.219
